Assay results taken from PMC4336329 (PLoS ONE, 2015).
Screen size: about 310,000 compounds; about 2,200 (0.71%) showed an effect of 50% or more. The effect is printed as a negative number. This is one part of the list.

target: human ether-à-go-go-related gene (hERG) potassium channel (human, UniProt Q12809); experiment: primary screen, population patch clamp on CHO cells stably expressing hERG
Sequence (Q12809 whole entry, looked up): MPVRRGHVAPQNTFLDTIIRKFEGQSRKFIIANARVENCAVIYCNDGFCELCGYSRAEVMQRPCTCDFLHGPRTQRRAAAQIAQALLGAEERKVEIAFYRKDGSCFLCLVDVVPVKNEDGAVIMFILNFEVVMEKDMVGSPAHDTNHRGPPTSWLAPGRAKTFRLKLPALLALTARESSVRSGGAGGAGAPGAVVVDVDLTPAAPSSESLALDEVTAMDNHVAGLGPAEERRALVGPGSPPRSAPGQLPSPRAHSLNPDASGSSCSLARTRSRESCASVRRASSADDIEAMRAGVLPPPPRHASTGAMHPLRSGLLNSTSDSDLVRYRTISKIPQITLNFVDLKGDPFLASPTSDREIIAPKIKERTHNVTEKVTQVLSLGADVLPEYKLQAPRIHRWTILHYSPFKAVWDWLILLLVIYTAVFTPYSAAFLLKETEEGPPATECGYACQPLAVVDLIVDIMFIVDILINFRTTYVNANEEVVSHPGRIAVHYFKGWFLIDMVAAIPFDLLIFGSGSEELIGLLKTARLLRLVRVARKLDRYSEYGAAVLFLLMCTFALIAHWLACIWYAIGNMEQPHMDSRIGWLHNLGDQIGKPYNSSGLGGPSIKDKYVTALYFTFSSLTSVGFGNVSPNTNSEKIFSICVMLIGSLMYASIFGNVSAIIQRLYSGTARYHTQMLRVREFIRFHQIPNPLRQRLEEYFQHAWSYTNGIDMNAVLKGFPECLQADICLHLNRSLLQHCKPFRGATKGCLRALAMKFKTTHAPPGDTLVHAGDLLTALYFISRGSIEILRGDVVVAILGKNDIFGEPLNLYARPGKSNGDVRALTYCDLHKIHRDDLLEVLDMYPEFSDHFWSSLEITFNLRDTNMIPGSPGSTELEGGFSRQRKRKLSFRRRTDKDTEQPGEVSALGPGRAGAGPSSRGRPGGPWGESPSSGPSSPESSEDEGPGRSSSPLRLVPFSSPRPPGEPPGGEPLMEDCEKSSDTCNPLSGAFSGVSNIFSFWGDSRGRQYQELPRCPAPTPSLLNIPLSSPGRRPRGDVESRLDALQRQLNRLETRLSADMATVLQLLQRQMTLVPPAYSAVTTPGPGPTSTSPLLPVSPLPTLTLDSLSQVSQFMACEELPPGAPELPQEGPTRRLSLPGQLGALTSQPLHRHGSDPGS

Row | SMILES | hERG current change (%, negative = inhibition) at 1uM
1 | CN(C)CCCNC(=O)COc1ccc(Br)cc1Cl | 1.49%
2 | CN(CC(=O)Nc1c(Cl)cccc1Cl)C(=O)c1sccc1-c1ccccc1 | 4.52%
3 | CCOC(=O)C1CCN(c2ncnc3c2c(-c2ccccc2)cn3-c2ccccc2)CC1 | 9.7%
4 | Nc1nc(NCCOCCO)nc(N2CCCCCC2)c1[N+](=O)[O-] | 12.9%
5 | C[C@@H]1NC(=O)/C(=C\c2ccccc2Br)NC1=O | 12.2%
6 | C/C(Cl)=C/Cn1c(NCCN(C)C)nc2c1c(=O)n(C)c(=O)n2C | -12.9%
7 | O=Cc1ccc(-c2ccc(Cl)cc2Cl)[nH]1 | 12.1%
8 | O=C(OCC#CCSc1nnc(-c2ccccc2)o1)c1cccs1 | -1.02%
9 | COc1ccc(CCNC(=O)c2n[nH]c3ccccc23)cc1 | 28.1%
10 | Cc1ccc(NC(=O)C(NC2CCCc3ccccc32)c2ccccc2)c([N+](=O)[O-])c1.O=C(O)C(=O)O (stereo not shown) | 13.6%
11 | O=C(OCC(=O)N1CCN(c2ccccc2)CC1)c1ccccc1[N+](=O)[O-] | 11.2%
12 | O=Cc1sc([O-])nc1-[n+]1ccc2ccccc2c1 | 13.6%
13 | CCOC(=O)N1CCN(S(=O)(=O)N2CCCC(C(=O)NCCc3ccc(C)cc3)C2)CC1 (stereo not shown) | 13.2%
14 | CCCCCc1nnc(NC(=O)c2ccc3nc[nH]c3c2)s1 | 7.22%
15 | O=C(Cc1ccccc1)NNC(=O)Nc1cccc(Cl)c1 | 13.6%
16 | COc1ccc(CCNCc2cc3ccc(C)cc3[nH]c2=O)cc1OC | -53.5%
17 | Cn1c(Cc2ccccc2)nnc1SCC(=O)N1CCOCC1 | 5.94%
18 | Cc1cc(C)n(CCNC(=O)c2ccc3c(c2)OCO3)n1 | 15.8%
19 | COc1ccc(Cl)cc1-n1c(C)cc(C(=O)O)c1C | 12.4%
20 | CCn1c(SCC(=O)Nc2ccc(OC)cc2)nnc1-c1ccco1 | 10.9%

Row | SMILES | hERG current change (%, negative = inhibition) at 1uM
21 | Cc1c2ccccc2nc2c(F)c(N(C)C)c(F)c(F)c12 | 19.7%
22 | Cn1c(=O)cc(SCC(=O)N2CCN(Cc3ccc4c(c3)OCO4)CC2)c2ccccc21 | 5.43%
23 | N/C(=N\OC(=O)COc1ccccc1Cl)c1ccc(Cl)cc1 | 10.5%
24 | CC1Oc2cc3oc4c(O)c(O)ccc4c(=O)c3c(O)c2C1(C)C (stereo not shown) | 14.4%
25 | CCN(CC)S(=O)(=O)c1ccc(S(=O)(=O)N2CCC(N3CCCCC3)CC2)cc1 | 3.19%
26 | CCC(C)NC(=O)C1c2ccccc2C(=O)N1Cc1ccc(OC)cc1OC (stereo not shown) | 16.3%
27 | Cc1c(N2CCCC2)cc2c(c1N)C(C)(C)CC2(C)C | 8.42%
28 | COc1ccc(OC)c(Nc2nc(-c3ccc(O)c(O)c3)cs2)c1 | 12.9%
29 | C=C1c2ccccc2NC(=S)N1Cc1ccc2c(c1)OCO2 | 19.7%
30 | COc1ccc(OCC(=O)Nc2cc(OC)ccc2N2CCCCC2)cc1 | 13.1%
31 | Cn1c2c(c(=O)n(C)c1=O)C(NC(=O)C(C)(C)C)(C(F)(F)F)C(=O)N2 (stereo not shown) | 10.5%
32 | COCCOC(=O)c1[nH]c2c(c1C)C(=O)CC(c1ccccc1)C2 (stereo not shown) | 8.09%
33 | Cn1c(SCC(=O)NCC2CCCO2)nc2scc(-c3ccccc3)c2c1=O (stereo not shown) | -0.951%
34 | CC(O)CSc1nc2c(c(=O)[nH]c(=O)n2C)n1CC(O)COc1ccccc1 (stereo not shown) | 11.9%
35 | CCCN1CCN(C(=O)Cn2ncc3ccccc32)CC1 | 18.2%
36 | O=C(CSc1oc(-c2cccs2)nc1S(=O)(=O)c1ccccc1)NC1CCCCC1 | 9.67%
37 | Cc1ccc(S/C=C\C(=O)c2ccccc2)cc1 | 4.45%
38 | CCOc1ncccc1C(=O)NNC(=O)c1cccc(S(=O)(=O)Nc2ccccc2OC)c1 | 0.371%
39 | Cc1ccc(Cc2cc(C)n[nH]c2=O)cc1 | 27.1%
40 | COc1ccc(NC(=S)Nc2ccc(OC)cc2OC)c(OC)c1 | 17.8%

Row | SMILES | hERG current change (%, negative = inhibition) at 1uM
41 | CCCCN(CC)CCNC(=O)c1cn(-c2ccc(Cl)cc2)c(=O)c2ccccc12 | -81.6%
42 | CCOC(=O)Nc1ccc2c(c1)N(C(=O)CN(CC)CC)c1ccccc1CC2.Cl | 9.02%
43 | O=C(Nc1ccccc1N1CCOCC1)c1ccc(Cl)c(S(=O)(=O)N2CCCC2)c1 | 4.39%
44 | Cc1ccc(/C=C2\CCC3=C2OC(N)=C(C#N)C3c2ccc(C)cc2)cc1 (stereo not shown) | 13.7%
45 | Cc1cc(O)ccc1Nc1nc(-c2sc(N)nc2C)cs1 | -5.27%
46 | COc1cc(=O)n(C)c2c(O)cccc12 | 20%
47 | O=C(NCCOC(=O)c1ccc(Cl)cc1)c1ccc[nH+]c1.[Cl-] | 4.8%
48 | NNC(=O)c1sc2cc(C(F)(F)F)cnc2c1-c1cccnc1 | 17%
49 | CCc1ccccc1NC1=CC(=O)CC(C)(C)C1 | 12.2%
50 | COc1ccc(C(=O)Nc2cc3c4c(c2)C(C)C(=O)N4CCC3)c(OC)c1 (stereo not shown) | 1.24%
51 | CCOC(=O)Cc1csc(NC(=O)/C=C/c2ccc(OC)cc2)n1 | 14.5%
52 | COc1cc(O)c(C(CCN2CCCCC2)c2cc(OC)c(OC)c(OC)c2)c(OC)c1 (stereo not shown) | 11.6%
53 | O=S1(=O)C=CC(Nc2cccc(Cl)c2)C1 (stereo not shown) | 15.6%
54 | O=C(CSc1ncccn1)NCc1ccc(Cl)cc1 | 7.24%
55 | COc1ccccc1N(Cc1cc(=O)[nH]c2ccccc12)C(=O)c1ccc([N+](=O)[O-])cc1 | 1.95%
56 | CCOc1ccc(NC(=S)N(CC)Cc2ccccc2)cc1 | 4.64%
57 | COc1ccc(C(=O)c2c(C)oc3ccc(O)c(CN4CCOCC4)c23)cc1 | -0.447%
58 | CC1=C(C(=O)Nc2ccccc2)C(c2ccco2)C(C#N)=C(SCC(N)=O)N1 (stereo not shown) | -1.52%
